Our source for the GI50 and TGI values is PubChem BioAssay (NCI).

Several values for one entry are separate records, joined by “and”; a condition that tells them apart may be missing. Identical values can stand only once.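 Where inhibition never reached the appropriate level, the endpoint shown equals the highest concentration tested. Otherwise, values were interpolated linearly from a five-concentration, 48-hour dose response in 96-well plates. Here, GI50 denotes the concentration required for 50% inhibition of growth. The concentration for full growth arrest is given as TGI.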 Numbered stars: 1 amine (or outer) side, 2 acyl side, 3 side chain; on linkers, the order of the positions; unused ones are H or OH. Bridge positions count the residues as written; N and C are the ends. Square brackets hold non-standard residues; d marks the D form. Peptide text beside a SMILES is read from it. I, II: the chains in the order shown. * marks the point of attachment. Actinocin(1to9) = Cc1c2oc3c(C)ccc(C(=O)[*:2])c3nc-2c(C(=O)[*:1])c(N)c1=O; Fmoc = O=C(OCC1c2ccccc2-c2ccccc21)*; NMeV = CN[CH](C(=O)O)C(C)C; Boc = CC(C)(C)OC(=O)*; Sar = CNCC(=O)O

This assay relates to NCI-H322M lung. In words: NCI-60 cell line screen, 48 h.
As for `COn1cc(C(=O)N=C(SC)SC)c2ccccc21`, the GI50 was 16.3 µM and the TGI is 43.6 µM.
Take `Cc1cn(C2CC(O)C(Cn3nncc3Cn3ccc(=O)[nH]c3=O)O2)c(=O)[nH]c1=O` (stereo unspecified): the TGI is more than 100 µM.
`Cn1c2c(c3c(=O)[nH]ncc31)CCCc1ccccc1-2`: the TGI is more than 100 µM.
The compound `Fc1ccc(C(OCCN2CCC3CCC(C2)N3C/C=C/c2cccnc2)c2ccc(F)cc2)cc1` (stereo unspecified) returned a TGI of 26.6 µM.
`CCC(C)C1NC(=O)C(NC(=O)c2c3nc4c(C(=O)NC5C(=O)NC(C(C)C)C(=O)N6CCCC6C(=O)N(C)CC(=O)N(C)C(C(C)C)C(=O)OC5C)ccc(C)c4oc-3c(C)c(=O)c2N)C(C)OC(=O)C(C(C)C)N(C)C(=O)CN(C)C(=O)C2CCCN2C1=O` (stereo unspecified) (I: TIP[Sar][NMeV] / II: TVP[Sar][NMeV]; ester I:1-I:C, II:1-II:C; linker I:N-II:N via Actinocin(1to9); configuration not given here): the TGI was 0.499 µM.
The compound `Cc1ccc(C(=O)N/N=C(\N=Nc2ccccc2)c2ccc(N(CCC#N)CCC#N)cc2C)cc1` yielded a TGI of more than 100 µM.
In turn, `CCOC(=O)c1c[nH]c2cc3c(cc2c1=O)CCS3` returned a TGI of more than 100 µM.
Take `CC(C)(C)OC(=O)NCCCCC(NC(=O)C(Cc1c[nH]c2ccccc12)NC(=O)OCC1c2ccccc2-c2ccccc21)C(=O)O` (stereo unspecified) (Fmoc-Trp-Lys(Boc)-OH; configuration not given here): the TGI was more than 100 µM.
In turn, `COc1cc(N(CCC#N)CCC#N)ccc1/C(N=Nc1cccc(C)c1)=N\NC(=O)c1ccc(C)cc1` returned a TGI of more than 100 µM.
With `N#CC1C(=O)NC(=O)C(C#N)C1c1ccc(Cl)c(Cl)c1` (stereo unspecified), the TGI is more than 100 µM.
`CCc1cccc(CC)c1NC(=O)C1=CNC(C)=C(C(=O)Nc2c(CC)cccc2CC)C1c1ccc(O)c(OC)c1` (stereo unspecified) registered a TGI of more than 100 µM.
In the case of `CCOc1cc[n+](C(=C=[N-])C#N)cc1`, the TGI was more than 100 µM.
For `Nc1nc(N)c(-c2ccc(Cl)cc2)c(/C=C/c2ccc([N+](=O)[O-])cc2)n1`, the GI50 is 21.4 µM and the TGI was more than 100 µM.
`CC(=O)O[C@@H]1CN(S(=O)(=O)c2ccc(C)cc2)C[C@@H]1C1CCCCC1` came in with a TGI of more than 100 µM.
On the same count and under the same terms, then `CC(=O)NC1=CC(=O)C=C(Cl)C1=O`, with more than 100 µM; and `S=c1sscc1N1CCSc2ssc(=S)c21`, with more than 100 µM.
The compound `Cc1ccc2nnc(NS(=O)(=O)c3cc(C)c(Cl)cc3S)n2n1` had a TGI of more than 100 µM.
The compound `COc1ccc(-c2cc(=O)c3cccnc3[nH]2)cc1` yielded a TGI of more than 100 µM.
Consider `CCCCCCCCCCCCCCCC(N)c1ccccc1` (stereo unspecified), for which the GI50 was 1.61 µM and the TGI came to 3.05 µM.
The compound `CC1CCC2[C@@H](C)COC3O[C@]4(C)CCC1C32OO4` (stereo partly specified) registered a TGI of more than 100 µM.
`O=C(O)CSc1nnc2c3ccccc3c3ccccc3c2n1` yielded a TGI of more than 100 µM.
On to `CC(=O)Nc1cc(CN2CCCCC2)c(O)c2ncccc12`, for which the TGI was more than 100 µM.
`CCc1ncc(C(C)(O)c2ccccc2)n1Cc1ccccc1` (stereo unspecified) gave a TGI of more than 100 µM.
Compound `Cc1ccc(C)c(C(=N)c2ccccc2Cc2ccccc2)c1` came in with a TGI of more than 100 µM.
The same measure, in the same setting: then `CCCC(=O)Oc1cc(OC(=O)CCC)c2c(C)cc(=O)oc2c1`, with more than 100 µM.
For the compound `CCCC(CCC)C(=O)O`, the GI50 is more than 100 µM and the TGI was more than 20000 µM.
The compound `N#C/C=C\c1ccc(-c2cc(C(F)(F)F)cc(C(F)(F)F)c2)o1` came in with a TGI of more than 100 µM.
In turn, `CC(=O)CC(=O)ON(C)C(=O)Cc1ccccc1` registered a TGI of more than 100 µM.
The same measure, in the same setting: then `CN(C)c1ccc(/C=N/NC(=O)c2cnc3ccccc3c2)cc1`, with more than 100 µM; and `COc1ccc([Se]c2ccc(OC)cc2)cc1`, with more than 100 µM.
Regarding `NC(=O)N/N=C/c1ccccc1O`, the TGI was more than 100 µM.
For `COC(=O)/C=C/N1CC1`, the TGI is more than 10 µM.
`O=S1Cc2ccccc2CSS1` (stereo unspecified) showed a TGI of more than 100 µM.
Consider `CC(=O)N1c2ccc(-c3ccc(C(=O)O)cc3)cc2[C@H](Nc2ccc(Cl)cc2)C[C@@H]1C`, for which the GI50 is 0.358 µM and the TGI is 26.1 µM.
Take `CN(C)c1ccc(/C=c2\sc3nnc(Cc4ccccc4)n3c2=O)cc1`: the GI50 is more than 100 µM and the TGI was more than 100 µM.
Take `NC1=CN(Cc2ccccc2)C2=N/C(=C\c3ccco3)C(=O)N12`: the TGI was more than 100 µM.
As for `CCC(=O)Oc1ccc(/C=N/NC(N)=S)nc1`, the GI50 is 6.34 µM and the TGI was more than 100 µM.
Compound `CC(=O)Oc1cc2c(n(C)c1=O)CCC2` showed a TGI of more than 100 µM.
`Cc1cccc(/C=C2\CCCCCC2=O)c1`: the TGI was more than 100 µM.
For the compound `CCC12C=CCN3CCC4(C(=C(C(=O)OC)C1)Nc1ccccc14)[C@H]32` (stereo partly specified), the TGI is more than 100 µM.
As for `Cc1ccccc1NC(=O)CC(=O)n1nc(-c2ccccc2)c(N=Nc2ccc([N+](=O)[O-])cc2)c1-c1ccccc1`, the TGI is more than 100 µM.
As to `C[Si](C)(C)C#CCOC=C1CC1`, the TGI was more than 100 µM.
In the case of `CCOc1ccccc1NC(=O)C(=O)c1c(O)c2ccc(O)cc2oc1=O`, the TGI is more than 100 µM.
Regarding `COc1ccc2c(c1)NC(=O)CN2c1nc(C)nc2ccccc12`, the GI50 was 0.000904 µM and the TGI is more than 100 µM.
Consider `CCCCCC/C(CC(=O)CCC(=O)NCCc1ccccc1)=N\NC(=O)c1ccc2ccccc2c1O`, for which the TGI was more than 100 µM.
Compound `COc1cc2c(cc1OC)C(=O)N1CCCC1C(=O)S2` (stereo unspecified) yielded a TGI of more than 100 µM.
`Nc1cc(N)c2nc(-c3ccccc3)c(Oc3ccc(Cl)c(Cl)c3)nc2c1`: the GI50 was 21.2 µM and the TGI was determined as 58.8 µM.
With `NC(N)=N/N=C/c1ccc(Br)cc1`, the GI50 is 7.57 µM and the TGI was 26.4 µM.
Consider `C[C@]12CC[C@H]3[C@@H](CCC4=CC(=O)CC[C@@]43C)[C@@H]1CC[C@@H]2OC(=O)c1cccc2c(=O)c3ccccc3[nH]c12`, for which the TGI stood at 35 µM.
For the compound `O=C(Nc1ccc(N2CCNCC2)cn1)c1[nH]ncc1Nc1ncnc2sc3c(c12)CCC3`, the GI50 was 1.77 µM and the TGI was determined as 4.14 µM.
As for `Cc1c(C(=O)Nc2ccc(Cl)cc2)nc(N)nc1-c1cccc(Cl)c1`, the TGI was more than 100 µM.
On the same count and under the same terms, to `ClCCCN1CCCCC1CCl` (stereo unspecified) belongs more than 100 µM.
With `O=S1(=O)C=C(c2ccccc2)C(c2ccccc2)=C1`, the GI50 is 3.22 µM and the TGI was found to be 14.3 µM.
As for `CCO/N=C(/CC)c1ccc(Br)s1`, the TGI was more than 100 µM.
On to `CCN1CCC(O)(/C=C/c2ccc(Cl)cc2)C(C(=O)/C=C/c2ccc(Cl)cc2)C1` (stereo unspecified), for which the TGI is more than 100 µM.
As for `N#Cc1c(Nc2ccccc2)[n+]([O-])c2ccc(Cl)cc2[n+]1[O-]`, the TGI is more than 100 µM.
`O=c1[nH]c(=S)c2[nH]c(=O)n(-c3ccccc3)c2[nH]1` yielded a TGI of more than 100 µM.
Turning to `COc1cc2c3c4c1OCc1c5c(cc(c1-4)CC3[N+](C)(C)CC2)OCO5` (stereo unspecified), the TGI is more than 100 µM.
`CC(C)Cn1cnc2c(SCc3ccccn3)nc(N)nc21` returned a TGI of more than 100 µM.
`COc1ccc(/C=C2\CC3C4CC=C5C[C@@H](O)CC[C@]5(C)C4CC[C@]3(C)C2=O)cc1OC` (stereo partly specified) had a TGI of more than 100 µM.
As for `CCN1C(=O)N(CC)C2C1NN=c1s/c(=C\c3cnc(C)n3C)c(=O)n12` (stereo unspecified), the GI50 is 5.65 µM and the TGI was more than 100 µM.
Consider `O=C(CSCC(=O)N/N=C/c1ccncc1)N/N=C/c1ccncc1`, for which the TGI is more than 100 µM.
As for `CC(C)(C)OC(=O)CC(NC(=O)OC(C)(C)C)C(=O)Oc1ccc([N+](=O)[O-])cc1` (stereo unspecified), the TGI was more than 100 µM.
Turning to `CC(CNc1nc(Nc2ccc(Cl)c(Cl)c2)nc(C(Cl)(Cl)Cl)n1)N(C)C` (stereo unspecified), the GI50 was 2.28 µM and the TGI turned out to be 5.94 µM.
For `COC(=O)CCc1c(/C=C2\N=C(c3ccc[nH]3)C=C2OC)[nH]c(C)c1C(=O)OCc1ccccc1`, in that order: 3.87 µM and more than 100 µM.
The compound `COC(=O)C(C(=O)C(=O)Nc1ccc(N)cc1[N+](=O)[O-])c1nc2ccc(Cl)cc2[nH]c1=O` (stereo unspecified) came in with a TGI of more than 100 µM.
With `N#CC(CC(=O)O)=C(c1ccccc1)c1ccccc1`, the TGI is more than 100 µM.
`CCCCn1c2c(n(CCCC)c1=[Se])-c1c(n(CCCC)c(=[Se])n1CCCC)S[Se][Se]S2` had a TGI of more than 78.4 µM.
For the compound `COC(=O)C1=C(O)C(C(=O)OC)[C@@]2(O)[C@@H](C(=O)OC)C(c3ccccc3Cl)C[C@@H]1[C@@H]2C(=O)OC` (stereo partly specified), the GI50 is 13.3 µM and the TGI was found to be 27.5 µM.
Regarding `CC1=C(C(=O)NCc2ccccc2)C(c2ccccc2O)C(C(=O)NCc2ccccc2)=C(C)N1`, the TGI worked out at 41.3 µM.
With `OCC(O)C(O)C(C=NNc1ncnc2ccc(Br)cc12)=NNc1ncnc2ccc(Br)cc12` (stereo unspecified), the TGI is 45.3 µM and > 100 µM.
Turning to `COC(=O)[C@]1(C)CC[C@]2(C)CC[C@]3(C)C(=CC(=O)[C@@H]4[C@@]5(C)CCC(=O)NC(C)(C)[C@@H]5CC[C@]43C)[C@@H]2C1`, the GI50 was more than 100 µM and the TGI was more than 100 µM.
With `OCC1(CNc2cc(Cl)ncn2)CCC1`, the TGI is more than 100 µM.
In turn, `Cc1nc2c(s/c(=N\N)n2-c2ccccc2)c(=O)n1C` registered a TGI of more than 100 µM.
As for `Cc1cccc2c(=O)c3c(O)cc4c(c3n(C)c12)C=CC(C)(C)O4`, the TGI is more than 100 µM.
`C/C(=N\NS(=O)(=O)c1ccccc1)c1ccc[n+]([O-])n1`: the TGI is more than 100 µM.
Regarding `O=C(NC(Cc1ccccc1)P(=O)(O)c1ccccc1)OCc1ccccc1` (stereo unspecified), the TGI was more than 100 µM.
As to `COc1cc2c3c(n(CCCN4CCN(CCO)CC4)c(=O)c2cc1OC)-c1cc2c(cc1C3=O)OCO2`, the GI50 was 18.2 µM and the TGI is more than 51.6 µM.
As to `Nc1ncnc2c1ncn2COC/C=C/I`, the TGI was more than 100 µM.
On to `CCN(CC)c1ccc(N=C2C=CC(=C(C#N)C#N)c3ccccc32)c(C)c1`, for which the TGI amounted to 26.8 µM.
Regarding `CSc1nc(-c2cccc(NC(=O)CCl)c2)c(C#N)c(=O)n1C`, the GI50 was 3.39 µM and the TGI was determined as 12.9 µM.
Take `CC1SC(c2cccc(Cl)c2)N(NC(=O)C(O)c2ccccc2)C1=O` (stereo unspecified): the GI50 was more than 100 µM and the TGI was more than 100 µM.
In turn, `C(=NCCN=Cc1cccc2ccccc12)c1cccc2ccccc12` registered a TGI of more than 100 µM.
As to `C=[N+](CNC(=O)CNC(=O)C(Cc1ccccc1)NC(=O)OC(C)(C)C)C(=O)CNC(=O)C(Cc1ccccc1)NC(=O)OC(C)(C)C` (stereo unspecified), the TGI is more than 100 µM.
The compound `COc1ccc(NC(C)=O)cc1N1C(=O)/C(=C\c2cccc(Oc3ccccc3)c2)SC1c1ccccc1` (stereo unspecified) had a TGI of more than 100 µM.
On to `NC(N)=N/N=C/c1c(-c2ccc(Cl)cc2)nc2n1CCS2`, for which the TGI came to 27.2 µM.
